Data published in PubChem BioAssay AID2675 (National Center for Advancing Translational Sciences (NCATS), 2010).
Screen size: about 280,000 compounds; about 100 (0.036%) were called active. Inconclusive means that the source gave no clear call. Such entries were picked first, then a sample of the others. Calls follow the shape of the dose curve; as a rule, active = well fitted inhibition curve with a large enough effect in the signal ratio, with a control signal flat (not every such curve was filed as active); inconclusive = small, poorly fitted or top-dose-only effect, or effect the other way, or a change in a side signal; inactive = no such curve, though single readings can be large or run the other way; the % refers to the signal ratio. Potencies of inconclusive entries are doubtful fits and often do not repeat. “Side channel” marks fits to a control or component signal instead of the main read-out.

target: Muscleblind-like protein 1 (Homo sapiens) (UniProt Q9NR56); experiment: qHTS Assay for Inhibitors of MBNL1-poly(CUG) RNA binding; details: TR-FRET MBNL1-His/biotin-(CUG)12 binding, 665/545 ratio; activity change, negative = inhibition: at 57.5 µM (top of the series)
Sequence of UniProt Q9NR56 (Q9NR56 whole entry, looked up): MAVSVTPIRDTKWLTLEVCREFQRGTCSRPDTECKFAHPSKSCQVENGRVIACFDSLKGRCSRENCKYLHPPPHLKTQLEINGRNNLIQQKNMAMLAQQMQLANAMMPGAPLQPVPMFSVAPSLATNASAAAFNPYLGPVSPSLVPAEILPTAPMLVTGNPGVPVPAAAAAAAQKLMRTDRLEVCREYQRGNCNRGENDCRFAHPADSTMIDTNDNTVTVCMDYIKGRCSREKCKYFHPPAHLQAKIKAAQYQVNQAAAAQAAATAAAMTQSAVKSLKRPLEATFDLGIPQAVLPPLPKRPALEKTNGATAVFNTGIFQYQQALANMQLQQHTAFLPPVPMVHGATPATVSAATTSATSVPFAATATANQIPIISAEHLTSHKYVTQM
Summary of the method: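 Compound titration spanned 92 nM–58 uM against the MBNL1-His/biotin-(CUG)12 complex. After 60 min at room temperature with 5 nM streptavidin-XL665 and 0.055 ng/ul terbium anti-His, ratiometric 665/545 nm emission (Ex 340 nm) normalized to controls.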
% is scaled to controls: 0 for no effect and ±100 for the full control effect; potency is read from the fitted curve at half-maximal effect; tags tell the direction and shape of the fitted curve or compound fluorescence and quenching.

Q: O=[N+]([O-])c1ccc(C23CC4CC(CC(O)(C4)C2)C3)cc1 was tested. Which Potency did it give?
A: inconclusive: 7.94 µM [quencher, side channel, full curve]

Q: Which Potency does the source give for Cc1cc(N2CCN(C)CC2)nc2ccc(NC(=S)NCCCN3CCc4ccccc4C3)cc12 here?
A: inconclusive: 100 µM [inhibitor, partial curve]

Q: For CSc1nnc(NC(=O)c2cc3ccccc3oc2=O)s1, which Potency is on record?
A: inconclusive: 3.55 µM [quencher, side channel, full curve]

Q: How did the Potency turn out when O=C(O)c1ccc(N/N=C/c2ccc3ncccc3c2)cc1 was run?
A: inconclusive: 5.01 µM [quencher, side channel, full curve]

Q: How did the Potency turn out when CC(C(=O)NCc1ccc(F)cc1)c1ccc([N+](=O)[O-])cc1 (stereo not given) was run?
A: inconclusive: 22.4 µM [quencher, side channel, partial curve]

Q: Which “activity change, negative = inhibition” value does the source give for O=C(CNC(=S)NC(=O)c1ccc(Br)o1)c1ccccc1 here?
A: inactive: 12.9%

Q: CCCCCCCCCCC[N+](C)(C)CC/C=C1/c2ccccc2Sc2ccc(Cl)cc21 was tested. Which “activity change, negative = inhibition” value did it give?
A: inactive: -0.187%

Q: Which Potency does the source give for CC1(C)NC(=O)N(CC(O)COc2ccc(N3C(=O)c4ccccc4C3=O)cc2)C1=O (stereo not given) here?
A: inconclusive: 14.1 µM [quencher, side channel, partial curve]

Q: c1ccc2c(c1)nc(N1CCOCC1)c1nncn12 was tested. Which “activity change, negative = inhibition” value did it give?
A: inactive: 6.41%

Q: For CCOC(=O)/C(C#N)=C/c1c(N2CCN(c3ccccc3)CC2)nc2ccccn2c1=O, which Potency is on record?
A: inconclusive: 4.47 µM [quencher, side channel, partial curve]

Q: For N/C(=N\OC(=O)CCCOc1ccc(Cl)cc1Cl)c1ccccn1, which Potency is on record?
A: inconclusive: 2.51 µM [quencher, side channel, full curve]

Q: O=S1(=O)CCOC[C@H](c2ccccc2)N1Cc1ccccc1 was tested. Which Potency did it give?
A: inconclusive: 0.794 µM [fluorescent, side channel, single point]

Q: CCC(Cc1ccccc1)NC(=O)CN1C(=O)CSc2ncccc21 (stereo not given) was tested. Which Potency did it give?
A: inconclusive: 1.12 µM [quencher, side channel, full curve]

Q: With O=S(=O)(c1ccccc1)N(Cc1nc(-c2ccccc2)no1)C1CCCCC1 as the compound, how does the “activity change, negative = inhibition” value read?
A: inactive: 1.23%

Q: How did the Potency turn out when Cc1cccc2c1-c1sc(C(=O)NCCCN3CCCC(C)C3)cc1CO2 (stereo not given) was run?
A: inconclusive: 22.4 µM [quencher, side channel, single point]

Q: Which Potency does the source give for CCOc1ccc(CCNC(=O)c2cc([N+](=O)[O-])ccc2N2CCOCC2)cc1OCC here?
A: inconclusive: 8.91 µM [quencher, side channel, full curve]

Q: With CCc1ccc(-n2c(=S)sc3c(=O)n(-c4ccccc4C)c(SCC(=O)O)nc32)cc1 as the compound, how does the Potency read?
A: inconclusive: 31.6 µM [quencher, side channel, single point]

Q: How did the “activity change, negative = inhibition” value turn out when Cc1ccc(S(=O)(=O)Oc2ccccc2/C=N/NC(N)=S)cc1 was run?
A: inactive: 0.692%

Q: Which Potency does the source give for O=C(NNC(=O)c1cc([N+](=O)[O-])ccc1Cl)c1cccs1 here?
A: inconclusive: 12.6 µM [quencher, side channel, single point]

Q: CNC(=O)c1cc2c(ccc3ccccc32)oc1=N was tested. Which Potency did it give?
A: inconclusive: 12.6 µM [quencher, side channel, partial curve]

Q: For COc1ccc2[nH]cc(CCN3C(=O)c4ccc(C(=O)O)cc4C3=O)c2c1, which Potency is on record?
A: inconclusive: 15.8 µM [quencher, side channel, partial curve]

Q: Which Potency does the source give for O=[N+]([O-])c1cccc(NC(=S)NCc2ccncc2)c1 here?
A: inconclusive: 25.1 µM [quencher, side channel, partial curve]

Q: Which “activity change, negative = inhibition” value does the source give for Cc1ccsc1/C=C1\CCc2ccccc2C1=O here?
A: inactive: 14.8%

Q: How did the Potency turn out when CCOC(=O)Nc1sc(=S)n(C)c1C was run?
A: inconclusive: 39.8 µM [inhibitor, single point]

Q: How did the Potency turn out when CC(C)CCN1C(=O)c2ccc(C(=O)NCC3CCCO3)cc2C1=O (stereo not given) was run?
A: inconclusive: 11.2 µM [quencher, side channel, partial curve]

Q: For O=[N+]([O-])c1cccnc1Oc1ccccc1F, which Potency is on record?
A: inconclusive: 25.1 µM [quencher, side channel, partial curve]

Q: How did the Potency turn out when Cc1ccc(OCC(=O)N/N=C\c2cccn2C)c([N+](=O)[O-])c1 was run?
A: inconclusive: 14.1 µM [quencher, side channel, partial curve]

Q: How did the “activity change, negative = inhibition” value turn out when COC(=O)C1CN(C(=O)C(C)Oc2ccc(F)cc2)c2ccccc2O1 (stereo not given) was run?
A: inactive: 0.285%

Q: Which Potency does the source give for N#Cc1cc(Nc2c(N)nc[nH]c2=O)c([N+](=O)[O-])cc1C#N here?
A: inconclusive: 12.6 µM [quencher, partial curve]

Q: CCCN1C(=O)/C(=C/c2ccc(C)s2)NC1=S was tested. Which Potency did it give?
A: inconclusive: 3.98 µM [quencher, side channel, partial curve]

Q: Which Potency does the source give for C[n+]1cc(C(=O)N2CCCCC2)ccc1/C=C/c1c[nH]c2ccccc12 here?
A: inconclusive: 12.6 µM [quencher, side channel, partial curve]

Q: With COc1ccccc1-c1noc(CSc2nc(N)cc(=O)[nH]2)n1 as the compound, how does the Potency read?
A: inconclusive: 22.4 µM [fluorescent, side channel, single point]

Q: Which Potency does the source give for Cc1ccc(NS(=O)(=O)c2cccc3nsnc23)cc1[N+](=O)[O-] here?
A: inconclusive: 25.1 µM [quencher, side channel, partial curve]

Q: How did the Potency turn out when CC1(C)C(c2cccs2)=[N+]([O-])C2(CCCCC2=O)N1O (stereo not given) was run?
A: inconclusive: 0.1 µM [quencher, side channel, full curve, poor fit]

Q: Which “activity change, negative = inhibition” value does the source give for CCn1cc(/C=N/NC(=O)c2ccc(C#N)cc2F)c2ccccc21 here?
A: inactive: 13.3%

Q: For CC(=O)c1cccc(NC(=O)C(=O)c2cn(CC(=O)N3CCCCC3)c3ccccc23)c1, which Potency is on record?
A: inconclusive: 7.94 µM [quencher, side channel, partial curve]

Q: Which Potency does the source give for COc1ccc(CCN(C)c2ccc(C(N)=O)cc2[N+](=O)[O-])cc1OC here?
A: inconclusive: 15.8 µM [quencher, side channel, partial curve]

Q: With CN(Cc1ccc(Br)cc1)C(=O)CCN1C(=O)c2cccc([N+](=O)[O-])c2C1=O as the compound, how does the Potency read?
A: inconclusive: 0.708 µM [quencher, side channel, full curve]

Q: Which “activity change, negative = inhibition” value does the source give for O=C(N/N=C/c1ccccc1)c1[nH]ncc1Br here?
A: inactive: 6.58%

Q: CSc1ccccc1NC(=O)c1ccc(N2CC3CC(C2)c2cccc(=O)n2C3)c(NC(=O)c2ccncc2)c1 (stereo not given) was tested. Which “activity change, negative = inhibition” value did it give?
A: inactive: -1.8%

Q: How did the Potency turn out when CC(=O)c1ccc(N2C(=O)[C@@H]3C(C(=O)CCN4C(=O)c5ccccc5C4=O)=NN[C@@H]3C2=O)cc1 was run?
A: inconclusive: 17.8 µM [quencher, side channel, partial curve]

Q: For CN(C)/N=C/c1cc([N+](=O)[O-])ccc1O, which Potency is on record?
A: inconclusive: 14.1 µM [quencher, side channel, partial curve]

Q: Which Potency does the source give for CC1CCCCN1CCCNc1ccc(C(CC(N)=O)NC(=O)c2ccccc2)cc1[N+](=O)[O-] (stereo not given) here?
A: inconclusive: 28.2 µM [quencher, partial curve]

Q: With COc1ccc(-c2oc3ccccc3c2C(=O)Oc2ccccc2)cc1 as the compound, how does the “activity change, negative = inhibition” value read?
A: inactive: 6.89%

Q: Which Potency does the source give for Cc1ccc(NC(=O)COC(=O)/C=C/c2c(C)nn(-c3ccc(F)cc3)c2Cl)cc1F here?
A: inconclusive: 0.891 µM [quencher, side channel, single point]

Q: With COc1ccc(-c2nnc3ccc(SC(C(C)=O)C(C)=O)nn23)cc1OC as the compound, how does the Potency read?
A: inconclusive: 12.6 µM [quencher, side channel, partial curve]

Q: How did the Potency turn out when O=C(Nc1ccccc1C(=O)N1CCCC1)c1ccc(Cl)c([N+](=O)[O-])c1 was run?
A: inconclusive: 7.08 µM [quencher, side channel, partial curve]

Q: Which Potency does the source give for CC(=O)NS(=O)(=O)c1ccc(NC(=O)c2cc3c(=O)n4ccccc4nc3s2)cc1 here?
A: inconclusive: 10 µM [quencher, side channel, partial curve]

Q: With Cc1ccc(C)n1-c1ccc(N2CCOCC2)c([N+](=O)[O-])c1 as the compound, how does the Potency read?
A: inconclusive: 15.8 µM [quencher, partial curve]

Q: COc1cccc(NCCC(=O)c2cccc([N+](=O)[O-])c2)c1 was tested. Which Potency did it give?
A: inconclusive: 3.55 µM [quencher, side channel, full curve]

Q: How did the “activity change, negative = inhibition” value turn out when Cc1nn(-c2ccccc2)c2nc(-c3ccncc3)cc(C(=O)NCc3ccco3)c12 was run?
A: inactive: 11.6%

Q: Which Potency does the source give for COC(=O)c1sc(=S)n(-c2ccccc2)c1N here?
A: inconclusive: 17.8 µM [quencher, side channel, partial curve]

Q: For COc1ccc(CCN=C(N)NS(=O)(=O)c2ccc(OC)cc2)cc1, which Potency is on record?
A: inconclusive: 31.6 µM [fluorescent, side channel, partial curve]

Q: For CCOC(=O)c1cc(=O)cc(C(=O)OCC)o1, which Potency is on record?
A: inconclusive: 39.8 µM [quencher, single point]

Q: CC(=O)c1cccc(NC(=O)c2ccc(NC(=O)CC3SC(N4CCCCC4)=NC3=O)cc2)c1 (stereo not given) was tested. Which “activity change, negative = inhibition” value did it give?
A: inactive: 1.12%

Q: Nc1nnc(/C=C/c2ccccc2)s1 was tested. Which Potency did it give?
A: inconclusive: 25.1 µM [quencher, single point]

Q: With COc1ccc(S(=O)(=O)NCCc2cn3nc(C)c(C)nc3n2)cc1F as the compound, how does the Potency read?
A: inconclusive: 14.1 µM [quencher, side channel, partial curve]

Q: How did the Potency turn out when COc1ccc(C2CC(c3cccs3)=NN2C(=O)CSc2nnc(N)s2)cc1OC (stereo not given) was run?
A: inconclusive: 28.2 µM [quencher, side channel, single point]

Q: Which Potency does the source give for O=C(O)CNC(=O)c1ccc(N2CCOCC2)cc1[N+](=O)[O-] here?
A: inconclusive: 22.4 µM [quencher, side channel, single point]

Q: Which Potency does the source give for O=C(NCc1ccncc1)Nc1cccc([N+](=O)[O-])c1 here?
A: inconclusive: 15.8 µM [quencher, side channel, partial curve]
